# Laboratory results published in the antibiotic and cytotoxicity screens of Wong et al. (2023).
# This is one part of the list.
# Assays:
# [1] = tested on: HSkMC (human skeletal muscle cells); assay: cytotoxicity call (relative viability < 0.9); conditions: 10 µM
# [2] = tested on: HepG2; assay: cytotoxicity call (relative viability < 0.9); conditions: 10 µM
# [3] = tested on: S. aureus RN4220; assay: growth inhibition call (relative growth <= 0.2); conditions: 50 µM
Structure (SMILES),cytotoxicity call [1],cytotoxicity call [2],growth inhibition call [3]
C[C@@H]1CCCCO[C@@H](CN(C)S(=O)(=O)c2ccc(F)cc2)[C@@H](C)CN([C@@H](C)CO)C(=O)c2cc(NS(=O)(=O)c3cn(C)cn3)ccc2O1,inactive,inactive,inactive
C[C@@H]1CCCCO[C@@H](CN(C)C(=O)CCC(F)(F)F)[C@H](C)CN([C@@H](C)CO)C(=O)c2cc(NS(=O)(=O)c3ccc(F)cc3)ccc2O1,inactive,inactive,inactive
COc1ccc(S(=O)(=O)Nc2ccc3c(c2)CC(=O)N([C@@H](C)CO)C[C@H](C)[C@@H](CN(C)Cc2ccc(C(=O)O)cc2)O3)cc1,inactive,inactive,inactive
CC(C)NC(=O)N(C)C[C@@H]1Oc2ccc(NC(=O)C3CCCCC3)cc2C(=O)N([C@@H](C)CO)C[C@@H]1C,inactive,inactive,inactive
C=CC[C@H](CC(=O)N(CCO)Cc1ccccc1)C(=O)N[C@@H](COC(=O)[C@@H](CC=C)Cc1ccc(F)cc1)Cc1c[nH]c2ccccc12,active,active,inactive
COc1cc2c(cc1OC)CN(CCc1ccc(-n3nnc(-c4cc(OC)c(OC)cc4NC(=O)c4cc(=O)c5ccccc5o4)n3)cc1)CC2,inactive,inactive,inactive
CN(N=O)C(=O)NC1C(O)OC(CO)C(O)C1O (stereo not given),inactive,inactive,inactive
COc1ccc(S(=O)(=O)N(C)C[C@H]2Oc3c(NC(=O)C4CC4)cccc3C(=O)N([C@@H](C)CO)C[C@H]2C)cc1,inactive,inactive,inactive
C[C@@H]1CN([C@H](C)CO)S(=O)(=O)c2ccc(C#CCN(C)C)cc2O[C@H]1CN(C)Cc1ccncc1,inactive,inactive,inactive
O=C(O)C1CCCN1 (stereo not given),inactive,inactive,inactive
CCCC(C(=O)OCCN(CC)CC)(c1ccccc1)c1ccccc1.Cl,inactive,active,inactive
C[C@H]1CN([C@@H](C)CO)C(=O)Cc2cc(NC(=O)Cn3cnnn3)ccc2O[C@H]1CN(C)S(=O)(=O)c1cccs1,inactive,inactive,inactive
Cc1cn(C2CC(N=[N+]=[N-])C(CO)O2)c(=O)[nH]c1=O (stereo not given),inactive,inactive,inactive
Cc1ccc(S(=O)(=O)N(C)C[C@@H]2Oc3c(NC(=O)c4cnccn4)cccc3C(=O)N([C@H](C)CO)C[C@@H]2C)cc1,inactive,inactive,inactive
Cc1cc(C(=O)Nc2cccc3c2O[C@@H](CN(C)C(=O)NC2CCCCC2)[C@H](C)CN([C@H](C)CO)C3=O)n(C)n1,inactive,inactive,inactive
C[C@@H]1CN([C@@H](C)CO)C(=O)c2cc(C#Cc3ccccc3F)cnc2O[C@H]1CN(C)S(=O)(=O)c1ccccc1F,inactive,active,inactive
C[C@H](CO)N1C[C@H](C)[C@@H](CN(C)Cc2ccc(C(=O)O)cc2)OCCCC[C@H](C)Oc2ccc(NS(=O)(=O)c3ccccc3)cc2C1=O,inactive,inactive,inactive
CNCc1nc(C)no1,inactive,inactive,inactive
C[C@@H]1CCCCO[C@H](CN(C)C(=O)Nc2ccc3c(c2)OCO3)[C@H](C)CN([C@@H](C)CO)C(=O)c2cc(NC(=O)Nc3cccc4ccccc34)ccc2O1,inactive,inactive,inactive
COc1ccc(S(=O)(=O)N(C)C[C@@H]2OCc3cnnn3CCCC(=O)N([C@@H](C)CO)C[C@@H]2C)cc1,inactive,inactive,inactive
C[C@@H]1CN([C@H](C)CO)C(=O)c2cc(NC(=O)C3CCCCC3)ccc2O[C@@H](C)CCCCO[C@H]1CN(C)C(=O)Nc1ccc(F)cc1,inactive,inactive,inactive
C/N=C1/S[C@@H]2CS(=O)(=O)C[C@@H]2N1C,inactive,inactive,inactive
O=C(c1ccncc1)N1C[C@@H]2[C@H](c3ccccc31)[C@@H](CO)N2C(=O)CN1CCOCC1,inactive,inactive,inactive
C[C@@H]1CN([C@@H](C)CO)C(=O)c2cc(NC(=O)CCN3CCOCC3)ccc2O[C@@H]1CN(C)S(C)(=O)=O,inactive,inactive,inactive
COCCN1[C@@H]2COC[C@H]1CN(S(=O)(=O)c1cn(C)cn1)C2,inactive,inactive,inactive
Cc1noc(C)c1NC(=O)Nc1ccc2c(c1)C(=O)N([C@H](C)CO)C[C@H](C)[C@@H](CN(C)Cc1ccc(C(F)(F)F)cc1)OCCCC[C@@H](C)O2,inactive,inactive,inactive
COc1ccccc1CNC(=O)C[C@H]1C[C@H]2c3cc(NC(=O)NC4CCCC4)ccc3O[C@H]2[C@@H](CO)O1,inactive,inactive,inactive
C[C@@H]1CN([C@H](C)CO)C(=O)Cc2cc(NC(=O)Cn3cnnn3)ccc2O[C@H]1CN(C)Cc1ccc(-c2ccccc2)cc1,inactive,inactive,inactive

Structure (SMILES),cytotoxicity call [1],cytotoxicity call [2],growth inhibition call [3]
C[C@H](CO)N1C[C@H](C)[C@@H](CN(C)Cc2ccc(C(F)(F)F)cc2)Oc2c(NC(=O)C3CCCCC3)cccc2C1=O,inactive,inactive,inactive
C[C@@H]1CN([C@H](C)CO)C(=O)c2cc(NC(=O)C3CC3)ccc2O[C@H]1CN(C)Cc1ccc(-c2ccccc2)cc1,inactive,inactive,inactive
COc1ccc(NC(=O)Nc2ccc3c(c2)[C@H]2C[C@H](CC(=O)NCc4ccncc4)O[C@@H](CO)[C@H]2O3)cc1,inactive,inactive,inactive
C[C@H](CO)N1C[C@H](C)[C@@H](CN(C)C(=O)Nc2ccc3c(c2)OCO3)Oc2ccc(NC(=O)C3CC3)cc2CC1=O,inactive,inactive,inactive
CC(C)NC(=O)Nc1ccc2c(c1)CC(=O)N([C@@H](C)CO)C[C@@H](C)[C@@H](CN(C)S(=O)(=O)c1ccc(F)cc1)O2,inactive,inactive,inactive
C[C@@H]1CN([C@H](C)CO)C(=O)c2cc(NC(=O)Nc3cccc4ccccc34)ccc2O[C@@H](C)CCCCO[C@@H]1CN(C)S(=O)(=O)c1cccs1,inactive,inactive,inactive
C[C@@H]1CN([C@H](C)CO)S(=O)(=O)c2ccc(-c3cncnc3)cc2O[C@@H]1CN(C)C(=O)Cc1cccnc1,inactive,inactive,inactive
C[C@@H]1CCCCO[C@H](CN(C)S(C)(=O)=O)[C@H](C)CN([C@@H](C)CO)C(=O)c2cc(NS(=O)(=O)c3cn(C)cn3)ccc2O1,inactive,inactive,inactive
COCCOC(=O)N1C(=O)[C@@]2(c3cc(C#CC4=CCCCC4)ccc31)[C@H](C(=O)NC[C@H](O)c1ccccc1)[C@H]1C(=O)O[C@H](c3ccccc3)[C@H](c3ccccc3)N1[C@@H]2c1ccc(O)cc1,inactive,inactive,inactive
CC(C)C[C@@H]1NC(=O)[C@H]2C[C@@H](C(=O)NCCCCCCNC(=O)CS)[C@@H](c3cccc(OCCO)c3)N2C1=O,inactive,inactive,inactive
O=C(C[C@H]1C[C@@H]2c3cc(NS(=O)(=O)c4ccc(F)cc4)ccc3O[C@@H]2[C@H](CO)O1)NCCc1ccccc1,inactive,inactive,inactive
Cc1noc(C)c1NC(=O)Nc1ccc2c(c1)C(=O)N([C@H](C)CO)C[C@H](C)[C@@H](CN(C)CC1CCCCC1)OCCCC[C@@H](C)O2,inactive,inactive,inactive
COCC(=O)N1C[C@@H]2OCCN(CCN3CCCC3)[C@H]2C1,inactive,inactive,inactive
Cc1noc(C)c1S(=O)(=O)Nc1ccc2c(c1)CC(=O)N([C@@H](C)CO)C[C@@H](C)[C@H](CN(C)S(=O)(=O)c1cccs1)O2,inactive,inactive,inactive
CCn1nc(C)c([C@@H](C)N)c1C,inactive,inactive,inactive
C[C@@H]1CN([C@H](C)CO)C(=O)CCCn2cc(nn2)CO[C@@H]1CN(C)Cc1cccc2c1OCCCO2,inactive,inactive,inactive
C[C@H]1CN([C@@H](C)CO)C(=O)c2cc(-c3cccc(C(=O)N(C)C)c3)cnc2O[C@@H]1CN(C)S(=O)(=O)c1cccc(F)c1,inactive,inactive,inactive
CC(C)NC(=O)Nc1ccc2c(c1)C(=O)N([C@@H](C)CO)C[C@H](C)[C@H](CN(C)Cc1ccc(-c3ccccc3)cc1)O2,inactive,inactive,inactive
Cc1noc(C)c1NC(=O)Nc1cccc2c1O[C@H](CN(C)C(=O)Nc1ccc(C(F)(F)F)cc1)[C@H](C)CN([C@@H](C)CO)C2=O,inactive,inactive,inactive
C[C@@H]1CN([C@H](C)CO)C(=O)c2cc(NC(=O)Nc3ccc(F)cc3)ccc2O[C@H]1CN(C)Cc1ccc(Oc2ccccc2)cc1,inactive,active,inactive
COc1ccc(S(=O)(=O)N(C)C[C@H]2Oc3ccc(NS(C)(=O)=O)cc3C(=O)N([C@H](C)CO)C[C@H]2C)cc1,inactive,inactive,inactive
CCCC#Cc1ccc2c(c1)O[C@@H](CN(C)S(=O)(=O)c1cccc(OC)c1)[C@H](C)CN([C@H](C)CO)S2(=O)=O,inactive,inactive,inactive
Cc1ccc(-c2ccc3c(c2)O[C@H](CN(C)C(=O)CN(C)C)[C@@H](C)CN([C@H](C)CO)S3(=O)=O)cc1,inactive,inactive,inactive
O=S(=O)(NCCCN(C/C=C/c1ccc(F)cc1)C/C=C/c1ccc(F)cc1)c1cccc2cnccc12,inactive,inactive,inactive
COc1ccc2c3c([nH]c2c1)[C@@H](CO)N(C[C@]13CN(Cc2ccccc2Cl)C1)S(=O)(=O)c1cn(cn1)C,inactive,inactive,inactive
C[C@@H]1CN([C@@H](C)CO)C(=O)c2cccc(NC(=O)C3CCOCC3)c2O[C@@H]1CN(C)Cc1ccncc1,inactive,inactive,inactive
COc1ccc2c3c([nH]c2c1)[C@@H](CO)N(C[C@]13CN(CC2CCCCC2)C1)S(=O)(=O)c1cn(cn1)C,inactive,inactive,inactive
